# PubChem BioAssay AID686979 (National Center for Advancing Translational Sciences (NCATS), 2013)
# Out of some 420,000 compounds screened, about 50,000 (12%) were called active. Inconclusive means that the source gave no clear call. Such entries were picked first, then a sample of the others. Calls come from the whole dose curve; as a rule, active = well fitted inhibition curve with a large enough effect; inconclusive = small, poorly fitted or top-dose-only effect; inactive = flat fitted curve, though single readings scatter. Potencies of inconclusive entries are left out as doubtful fits.
# Assay: qHTS for Inhibitors of human tyrosyl-DNA phosphodiesterase 1 (TDP1): qHTS in cells in presence of CPT; note: nearly all actives have a fitted effect of over 55% in size
# Conditions: chicken DT40 Tdp1-/-;hTDP1 cells + 20 nM CPT, ATP luminescence, 48 h; activity change, negative = growth inhibition: at 46.2 µM (top of the series) unless noted
# Outline: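 Cell growth measured by CellTiter-Glo luminescence after a minimum 48 h, 37 C compound exposure with 20 nM CPT in Tdp1-knockout DT40 cells stably expressing hTDP1, seeded 400/well; qHTS titration format.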
# % is set by controls: 0 for no effect and ±100 for the full control effect; potency is the fitted concentration of half-maximal effect; tags give direction and shape of the fitted curve.
Compound,"activity change, negative = growth inhibition",Potency
O=C(CCNC(=O)c1ccccc1Cl)NN=Cc1ccco1,inactive: 3.9%,
Cc1ccccc1-c1noc(CSc2nc3ccccc3[nH]2)n1,,active: 18.4 µM
CC1CCN(C(=O)Cn2c(=O)n(CCc3ccccc3)c(=O)c3ccccc32)CC1,,active: 14.6 µM
O=C(NCCc1ccccc1)c1cc(Nc2ccccc2)nc2ccccc12,,"inconclusive [inhibitor, partial curve]"
CCC1(C)C(Nc2c(C)cccc2C)=NC(=S)N1c1ccc(NC(C)=O)cc1 (stereo unspecified),inactive: -8.19%,
Cc1cc(C)c(C)c(S(=O)(=O)NCc2ccncc2)c1C,,active: 20.6 µM
CCCCN(C)C(=O)c1[nH]c(C(F)(F)F)nc1-c1ccccc1,,"inconclusive [inhibitor, partial curve]"
O=S(=O)(Cc1ccccc1)N1CCCc2ccccc21,inactive: 3.19%,
CCOc1ccccc1NC(=O)CSc1nc2ccccc2c(=O)n1CC1CCCO1 (stereo unspecified),,"inconclusive [inhibitor, single point]"
Fc1ccc(CSc2nnc(CN3CCOCC3)n2-c2ccccc2)c(Cl)c1,,"inconclusive [inhibitor, single point]"
CCCn1c(SCC(=O)Nc2cc(C(=O)O)ccc2C)nc2sc3c(c2c1=O)CCC3,,"inconclusive [inhibitor, single point]"
O=C(Nc1ccc(C(=O)O)cc1)/C(=C\c1ccc2c(c1)OCO2)NC(=O)c1ccc(Br)o1,,"inconclusive [inhibitor, single point]"
CCc1ccccc1Nc1nn2c(=O)c3ccc(C(=O)NCCC4=CCCCC4)cc3nc2s1,,active: 16.4 µM
CC(=O)Nc1cccc(Cl)c1C(=O)O,inactive: -1.54%,
C[C@H]1CN([C@@H](C)CO)S(=O)(=O)c2ccc(/C=C/c3ccccc3)cc2O[C@H]1CN(C)C(=O)NC1CCCCC1,,"inconclusive [inhibitor, single point]"
CCN1CCN(CCNC(=O)CCc2c(C)c3c(C)nn(-c4ccccc4)c3n(C)c2=O)CC1,,"inconclusive [inhibitor, single point]"
Cc1cc(=O)n2nc(N(C)CC(=O)NCc3ccccc3C)sc2n1,inactive: -29%,
O=C(NCCCN1CCC(Cc2ccccc2)CC1)C1CC(=O)N(C2CCCCCC2)C1 (stereo unspecified),,"inconclusive [inhibitor, partial curve]"
CCOCCc1nnc(NC(=O)C(=O)c2cc(C)n(-c3ccc(C)cc3C)c2C)s1,,"inconclusive [inhibitor, single point]"
CCCCCNS(=O)(=O)c1cc2c3c(c1)CCC(=O)N3CCC2,,"inconclusive [inhibitor, single point]"
Cc1cc(C)n2c(SC(C)C(=O)NC3(C#N)CCCCC3)nnc2n1 (stereo unspecified),inactive: 1.45%,
COc1ccc(CCN(C(=O)c2cccc(F)c2)C2CC(=O)N(c3ccccc3)C2=O)cc1 (stereo unspecified),,"inconclusive [inhibitor, single point]"
CC(=O)c1c(C)nn(CC(O)Cn2c3c(c4cc(C)ccc42)CCCC3=O)c1C (stereo unspecified),,"inconclusive [inhibitor, single point]"
CCC(c1nnnn1-c1ccc2c(c1)OCCO2)N1CCN(C/C=C/c2ccccc2)CC1 (stereo unspecified),,"inconclusive [inhibitor, single point]"

Compound,"activity change, negative = growth inhibition",Potency
CCOc1ccc(C(=O)Nc2ccc(S(=O)(=O)Nc3cc(C)on3)cc2)cc1,inactive: -18.4%,
CC(C)NC(=S)NN=C1c2ccccc2-c2ccccc21,,active: 23.1 µM
C=CCNC(=O)N1CCCC(N2CCN(c3ccccc3OC)CC2)C1 (stereo unspecified),inactive: 18.4%,
CC(NC(=O)/C(C#N)=C1\N=C(NC(=O)c2cccs2)c2ccccc21)c1ccccc1 (stereo unspecified),,"inconclusive [inhibitor, single point]"
CN(Cc1cccc(F)c1)C(=O)c1cccc(S(=O)(=O)N2CCN(Cc3ccccc3)CC2)c1,,"inconclusive [inhibitor, single point]"
Cc1cc(=O)[nH]c(NN=Cc2cc(Br)ccc2O)n1,,active: 2.59 µM
NC(=S)Nc1ccccc1Br,inactive: -2.62%,
COc1ccc(N2CCN(CCCNC(=O)C3COc4ccccc4C3)CC2)cc1 (stereo unspecified),,active: 11.6 µM
Cc1ccc(S(=O)(=O)NC(CC(C)C)C(=O)N2CCCCCCC2)cc1 (stereo unspecified),,"inconclusive [inhibitor, single point]"
Cc1cnc(C(=O)Nc2nnc(C3CC3)s2)cn1,inactive: 1.57%,
COc1ccc(CC(=O)NC2CC(C)(C)NC(C)(C)C2)cc1OC,inactive: 3.43%,
COc1ccc2oc(C(=O)OCC(=O)NCc3ccc(OC)c(OC)c3)c(C)c2c1,,"inconclusive [inhibitor, single point]"
CN1CCCCc2c1[nH]c1ccccc1c2=O,,"inconclusive [inhibitor, single point]"
O=C(OCCNc1ccc(C(F)(F)F)cc1[N+](=O)[O-])c1cc2ccccc2oc1=O,inactive: 2.05%,
O=C(NCC(c1ccco1)N1CCCCC1)C(c1ccccc1)c1ccccc1 (stereo unspecified),,active: 16.4 µM
CN(C)Cc1cc(OCc2ccccc2)cc(CN(C)C)c1O,inactive: 4.68%,
CCOC(=O)N/N=C/c1c(F)cccc1F,inactive: 5.97%,
CCc1c(O)cc2n(c1=O)-c1ccc(Cl)cc1C2(C)C,,"inconclusive [inhibitor, single point]"
Cc1cc(NC(=O)CN2CCc3ccccc3C2)nc2c1c(=O)oc1ccccc12,,active: 20.6 µM
O=C(CN1CCN(S(=O)(=O)c2ccccc2F)CC1)Nc1ccnn1C1CCCC1,,"inconclusive [inhibitor, partial curve]"
O=C(NC1=C(NC2CCS(=O)(=O)C2)C(=O)c2ccccc2C1=O)c1ccccc1 (stereo unspecified),,active: 2.06 µM
Fc1nc(F)c(F)c(NCCCNc2c(F)c(F)nc(F)c2F)c1F,,"inconclusive [inhibitor, single point]"
CC(C)C[C@H]1CNC(=S)N1C[C@H]1CCCN1C[C@H](Cc1ccc(O)cc1)N1C[C@H](Cc2ccccc2)N(CCc2ccccc2)C1=S,,"inconclusive [inhibitor, single point]"
CCN(CC)CCN(CC(=O)N(C1CCCCC1)C1CCCCC1)C(=O)c1ccco1,,"inconclusive [inhibitor, single point]"

Compound,"activity change, negative = growth inhibition",Potency
COc1ccc(S(=O)(=O)Nc2cc(C(=O)NCCC(C)C)ccc2N2CCOCC2)cc1,,"inconclusive [inhibitor, partial curve]"
Cc1ccc(NC=C(S(=O)(=O)c2ccccc2)S(=O)(=O)c2ccccc2)cc1,inactive: -16.6%,
COc1ccc(CNC(=O)NC2CCCCC2)cc1,inactive: -4.32%,
Cc1cc(N2CCCC2)c(C)cc1C=O,,"inconclusive [inhibitor, partial curve, poor fit]"
N=C1/C(=C\c2ccc(-c3ccc(C(=O)O)cc3)o2)C(=O)N=C2SC=C(c3ccccc3)N12,,"inconclusive [inhibitor, single point]"
COc1cc(CNC(C)C23CC4CC(CC(C4)C2)C3)ccc1OCC(=O)NC(C)(C)C (stereo unspecified),inactive: -107%,
CCN1C(C(=O)c2ccccc2)=C(OC(=O)COc2ccc(C)cc2)c2ccccc2S1(=O)=O,,"inconclusive [inhibitor, single point]"
C[C@@H](O[C@H]1OCCN(Cc2n[nH]c(=O)[nH]2)[C@H]1c1ccc(F)cc1)c1cc(C(F)(F)F)cc(C(F)(F)F)c1,,active: 18.8 µM
O=C1C=CC(=O)c2c(O)c(Cl)c(Cl)c(O)c21,,"inconclusive [inhibitor, partial curve, poor fit]"
O=C(OCC(O)C1OC(c2ccccc2)OC(COC(=O)c2ccccc2)C1O)c1ccccc1 (stereo unspecified),,"inconclusive [inhibitor, single point]"
COC(=O)c1ccc(N2C(=O)Cc3cc(OC)c(OC)cc3C2c2ccc(F)cc2)cc1 (stereo unspecified),,active: 14.6 µM
O=C(Nc1ccc(F)cc1)Nc1csc2c1CCCC2,,"inconclusive [inhibitor, single point]"
C[C@@H]1CN([C@H](C)CO)C(=O)c2cc(NC(=O)Nc3cccc4ccccc34)ccc2O[C@H]1CN(C)Cc1ccc(C(F)(F)F)cc1,,active: 10.3 µM
O=C(/C=C/c1ccc(Cl)cc1)NC(=S)Nc1ccc(CN2CCOCC2)cc1,,"inconclusive [inhibitor, partial curve]"
Cc1cccc(Nc2ncnc3onc(-c4cccc(Cl)c4)c23)c1C,,active: 20.6 µM
CCOC(=O)C1=NN(c2ccccc2)C2(S1)SC(C(C)=O)=C(C)N2c1ccccc1 (stereo unspecified),,"inconclusive [inhibitor, single point]"
Cc1onc(C(=O)NC(C)c2ccccc2)c1[N+](=O)[O-] (stereo unspecified),inactive: -8.71%,
O=C(Nc1cc(N2CCOCC2)ncn1)NC1(C(F)(F)F)Oc2ccccc2O1,,"inconclusive [inhibitor, partial curve]"
COCCNC(=O)c1cc2c(c(-c3cccc(C#Cc4ccc(OC)c(OC)c4)c3)n1)[C@H](CCO)N(S(=O)C(C)(C)C)C2 (stereo partly specified),,"inconclusive [inhibitor, single point]"
CC(C(=O)NCCc1ccc(F)cc1)N1CCN(Cc2ccccc2)CC1 (stereo unspecified),inactive: 0.967%,
CC(=O)c1c(N2CCCC2)[nH]c(-c2ccccc2)nc1=S,,"inconclusive [inhibitor, single point]"
CCn1c(SCC(=O)Nc2cccc(C)c2)nc2ccccc2c1=O,,"inconclusive [inhibitor, single point]"
C[C@@H]1CCC[C@H](C)N1,inactive: 3.44% [at 21.1 µM],
